Measurements from PubChem BioAssay (Tox21).
Where “and” joins values, the source holds several entries; their conditions need not be identical. Identical values can stand only once. This list was built around the results that the source calls inconclusive (neither active nor inactive); the mix of calls is not that of the screen. Potencies of inconclusive entries are doubtful fits and often do not repeat. A structure can be active in one record and inactive in another. Calls of active or inactive are those of the source. Calls follow the shape of the dose curve; as a rule, active = well fitted cell-killing curve with a large enough effect in the repeat runs; inconclusive = weak or mixed curves, or effect the other way; inactive = flat fitted curve, though single readings scatter.

Assay: cAMP Responsive Elements (CRE) small molecule antagonists, cell-based qHTS assay: qHTS cell viability counter screen (AID 2060913); also: nearly all actives have a fitted effect of over 40% in size
Conditions: CRE-bla HEK293T viability, CellTiter-Glo luminescence, 5 h; series mostly up to 92.4 µM
Summary of the method: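 Viability of NKH477-stimulated (0.25 uM final) CRE-bla HEK293T cells is measured by CellTiter-Glo luminescence following 3 hrs compound exposure at 37 C.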
% is scaled to controls: 0 for no effect and ±100 for the full control effect; potency is read from the fitted curve at half-maximal effect; tags tell the direction and shape of the fitted curve.

| Compound | Potency | viability change, negative = cytotoxic |
| --- | --- | --- |
| Nc1ccc(N)c([N+](=O)[O-])c1 | inconclusive: 77 µM [rising, partial curve, poor fit] | – |
| CCCCOCCOCCOCc1cc2c(cc1CCC)OCO2 | inconclusive: 22 µM [cytotoxic, partial curve] | – |
| C[N+]1(CC2COC(c3ccccc3)(c3ccccc3)O2)CCCCC1 (centres undefined) | – | inactive: 0.835% [at 18.9 µM] |
| CCCCCCCCCCCCOC(=O)c1cc(O)c(O)c(O)c1 | inconclusive: 76.6 µM [cytotoxic, single point] and inconclusive: 50.8 µM [cytotoxic, partial curve] | – |
| CCOc1cccc(-n2cc(C(=O)N3CCN(c4cc(C(=O)O)c5ccccc5c4)CC3)nc2-c2ccc(C)cc2)c1 | inconclusive: 65.5 µM [cytotoxic] | – |
| CCCCCCCCCCCCc1ccc(O)cc1 | active: 61.1 µM | – |
| c1ccc2c(c1)CCc1ccccc1N2 | inconclusive: 54.8 µM [cytotoxic, single point] | – |
| O=C(O)[C@H](O)c1ccccc1 | inactive | – |
| O=C(NO)c1ccccc1 | inactive | – |
| [Cl][Bi]([Cl])([c]1ccccc1)([c]1ccccc1)[c]1ccccc1 | active: 30.5 µM | – |
| CCOC(=O)c1nc(C(Cl)(Cl)Cl)n(-c2ccc(Cl)cc2Cl)n1 | inconclusive: 77 µM [cytotoxic, partial curve, poor fit] | – |
| CCN(Cc1cccc(S(=O)(=O)O)c1)c1ccc(C(=C2C=CC(=[N+](CC)Cc3cccc(S(=O)(=O)O)c3)C=C2)c2ccccc2S(=O)(=O)[O-])cc1 | inconclusive: 34.5 µM [cytotoxic, partial curve, poor fit] | – |
| Cn1cnc([N+](=O)[O-])c1Sc1ncnc2nc[nH]c12 | inconclusive: 11.3 µM [cytotoxic] | – |
| C[n+]1cc2c3c(ccc2c2ccc4cc5c(cc4c21)OCO5)OCO3 | active: 3.66 µM | – |
| CCN(CC)CCOC(=O)C1(C2CCCCC2)CCCCC1 | inconclusive: 29.8 µM [cytotoxic, single point] | – |
| C=C(C)C1CC=C(C)C(O)C1 (centres undefined) | inactive | – |
| O=[Se](O)O | active: 61.2 µM | – |

| Compound | Potency | viability change, negative = cytotoxic |
| --- | --- | --- |
| CCCCCCCCn1sc(Cl)c(Cl)c1=O | active: 30.6 µM | – |
| CCCCCCCCCCCCN(CCO)CCO | active: 60.9 µM | – |
| CC1=CC(=O)c2ccccc2C1=O | inconclusive: 68.6 µM [cytotoxic] | – |
| Cc1cc(Cc2cc(C)cc(C(C)(C)C)c2O)c(O)c(C(C)(C)C)c1 | active: 54.8 µM and active: 40.3 µM | – |
| Nc1cc(Cl)c(-c2cc(Cl)c(N)cc2Cl)cc1Cl | inconclusive: 61.1 µM [cytotoxic, single point] and inconclusive: 57 µM [cytotoxic, single point] | – |
| C=C(C)C(=O)OCC(O)COc1ccc(C(C)(C)c2ccc(OCC(O)COC(=O)C(=C)C)cc2)cc1 (centres undefined) | active: 61.1 µM | – |
| COc1cc(/C=C/C(=O)CC(=O)/C=C/c2ccc(O)c(OC)c2)ccc1O | inconclusive: 69 µM [cytotoxic, single point] | – |
| C=CCOCC(O)CS(=O)(=O)O (centres undefined) | inactive | – |
| COC(=O)C1=C(C)NC(C)=C(C(=O)OCCN(C)Cc2ccccc2)C1c1cccc([N+](=O)[O-])c1 (centres undefined) | inconclusive: 68.2 µM [cytotoxic, single point] | – |
| CC(C)(O)c1ccc(C(C)(C)O)cc1 | inactive | – |
| C=C1C(CCl)(CCl)C2(Cl)C(Cl)C(Cl)C1(Cl)C2(Cl)Cl (centres undefined) | active: 60.4 µM | – |
| O=C1C=CC(=O)N1 | inconclusive: 70.4 µM [cytotoxic, single point] | – |
| CC(C)c1cccc(C(C)C)c1N1C(=O)c2ccc(O)cc2C1=O | active: 61.1 µM | – |
| CC1(C)CCC(C)(C)c2cc(C(=O)Nc3ccc(C(=O)O)cc3)ccc21 | inconclusive: 68.6 µM [cytotoxic, single point] | – |
| O=C(Nc1ccc([N+](=O)[O-])cc1Cl)c1cc(Cl)ccc1O | inconclusive: 0.82 µM [cytotoxic, full curve, poor fit] | – |
| NC(=O)N/N=C/c1ccc([N+](=O)[O-])o1 | inconclusive: 34.4 µM [cytotoxic, partial curve, poor fit] | – |
| CC[C@H]1CN2CCc3cc(OC)c(OC)cc3[C@@H]2C[C@@H]1C[C@H]1NCCc2cc(OC)c(OC)cc21 | inconclusive: 0.376 µM [rising, full curve, poor fit] | – |
